Here are results for 66 compounds from PubChem BioAssay AID1347073 (National Center for Advancing Translational Sciences (NCATS), 2019).

Among all 45,000 compounds or so, about 200 (0.44%) were called active. About 7% were inconclusive and are not listed. Calls follow the shape of the dose curve; as a rule, active = well fitted activation curve with a large enough effect; inconclusive = small, poorly fitted or top-dose-only effect; inactive = no such curve, though single readings can be large or run the other way. The list shows a part of the results.

This assay in a line: qHTS of TDP-43 Inhibitors: NCGC Sytravon Library Screen. Also: 0% is about no effect; nearly all actives have a fitted effect of over 55% in size. The note with it: yeast TDP-43 toxicity rescue, BacTiter-Glo growth, 24 h; series mostly up to 46.1 µM; growth rescue (activation): at the top concentration. A digest of the protocol:
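TDP-43-expressing yeast, pregrown in raffinose, seeded at OD600 0.02 in galactose medium with compound for 24 hr at 30 deg C. Growth read by BacTiter-Glo luminescence, so rescue of toxicity appears as activation.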
(In general: qHTS replaces the single test concentration by a dilution series.)
As for `COc1cc(CC(NC(C)=O)C(=O)NC2CCN(C(=O)Nc3ccccc3C)CC2)cc(OC)c1` (stereo unspecified), the “growth rescue (activation)” value was inactive: 8.76%.

Turning to `O=C(CCC(=O)Nc1ccc(F)cc1)N/N=C/c1cccnc1`, the “growth rescue (activation)” value was inactive: 14.1%.

`Cc1ccccc1C(=O)c1cccn1CC(=O)NCc1cccc(Cl)c1`: the “growth rescue (activation)” value is inactive: 25.4%.

`Cn1nc(C(F)(F)F)c2cc(C(=O)N3CCOCC3)sc21`: the “growth rescue (activation)” value was inactive: 10.5%.

As for `COc1ccc(CN(C)C(=O)Cc2ccsc2)c(OC)c1OC`, the “growth rescue (activation)” value is inactive: 3.52%.

Regarding `O=C(CN1C(=O)COc2ccc(S(=O)(=O)N3CCOCC3)cc21)NCc1ccco1`, the “growth rescue (activation)” value was inactive: -0.457%.

With `Cc1cc([N+](=O)[O-])ccc1NC(=O)c1ccc(NC(=O)C(C)C)cc1`, the “growth rescue (activation)” value was inactive: 9.96%.

Consider `Cc1ccc(O)c(C(=O)c2cc(C(=O)NCCc3ccccc3)c(=O)n(CCc3ccccc3)c2)c1`, for which the “growth rescue (activation)” value is inactive: 12.9%.

On to `O=C(CCCC(=O)N(c1ccc(F)cc1)C(C(=O)NC1CCCC1)c1ccc(O)cc1)Nc1ccccn1` (stereo unspecified), for which the “growth rescue (activation)” value was inactive: 6.17%.

Take `COc1ccc(/C=N/n2cnn(Cc3ccccc3Cl)c2=S)cc1OC`: the “growth rescue (activation)” value was inactive: -2.08%.

Take `O=C(/C=C/c1ccccc1)C1=C(O)C(=O)N(CCO)C1c1ccccc1[N+](=O)[O-]` (stereo unspecified): the “growth rescue (activation)” value is inactive: -22.7%.

Consider `CCCCNC(=O)N(O)C1N(/N=C/c2ccc(N(C)C)cc2)C(=S)SC1(C)C` (stereo unspecified), for which the “growth rescue (activation)” value is inactive: 8.66%.

Regarding `COc1ccccc1OCC(=O)Nc1ccccc1C(=O)N1CCCC1`, the “growth rescue (activation)” value is inactive: -0.738%.

Turning to `Cc1ccc2c(c1)N(CCCC(=O)NCc1cccc(F)c1)C(=O)CO2`, the “growth rescue (activation)” value is inactive: 26.2%.

As to `CCN1CCN(c2cc(C)c3cc(NC(=O)CCC(=O)N4CCN(c5ccccc5OC)CC4)ccc3n2)CC1`, the “growth rescue (activation)” value was inactive: 7.33%.

For the compound `CN(C)CCCN=Cc1c(-c2ccccc2)[nH]n(-c2nc3ccccc3s2)c1=O`, the “growth rescue (activation)” value is inactive: 12.5%.

Regarding `O=C(NC1CCCC1)C(c1ccc(N2CCOCC2)cc1)N(Cc1ccco1)C(=O)c1ccco1` (stereo unspecified), the “growth rescue (activation)” value is inactive: -1.97%.

Consider `COc1ccc(/C=N/Nc2cc(C)nc3ccc(Br)cc23)cc1`, for which the “growth rescue (activation)” value was inactive: 11.3%.

Regarding `C/C(=N\Nc1ccc(Cl)c(C(=O)O)c1)c1cccc2ccccc12`, the “growth rescue (activation)” value is inactive: -1.87%.

With `Cc1ccc2[nH]c(=O)c(COC(=O)C3CCCCC3)cc2c1`, the “growth rescue (activation)” value was inactive: 3.28%.

With `COc1cc(/C=C/C(=O)OCC(=O)c2ccc(OC(F)F)cc2)ccc1O`, the “growth rescue (activation)” value is inactive: 0.605%.

In the case of `O=C1NC2(CCCCC2)C(=O)N1Cc1ccc([N+](=O)[O-])cc1`, the “growth rescue (activation)” value was inactive: 15.5%.

With `CCOC(=O)c1ccc(N2C(=O)CC(N3CCN(Cc4ccccc4)CC3)C2=O)cc1` (stereo unspecified), the “growth rescue (activation)” value was inactive: -16.1%.

As to `CCOc1cc(/C=N/NC(=O)CCn2nnc3ccccc32)ccc1O`, the “growth rescue (activation)” value is inactive: -13.5%.

As to `Cc1ccc(NC(=O)CSc2nc(=O)cc(N)n2CCc2ccccc2)cc1`, the “growth rescue (activation)” value is inactive: 0.803%.

With `CCCCCCc1cc2cc(C(=O)NC)c(=N)oc2cc1O`, the “growth rescue (activation)” value was inactive: 9.62%.

In the case of `COc1cc2[nH]c(C(=O)N3CC(C)OC(C)C3)cc2c(OC)c1OC` (stereo unspecified), the “growth rescue (activation)” value is inactive: -16.7%.

As for `CC(C)(C)c1cc(NC(=O)c2ccco2)n(-c2ccccc2)n1`, the “growth rescue (activation)” value is inactive: -8.2%.

In the case of `Cc1cc(C)c(C(=O)NNC(=O)c2cccnc2)c(C)c1`, the “growth rescue (activation)” value is inactive: 8.23%.

For `CCCCC(=NCCc1c(C)[nH]c2ccccc12)C1=C(O)CC(c2ccccc2)CC1=O` (stereo unspecified), the “growth rescue (activation)” value is inactive: -0.745%.

On to `Cc1nnc(NCc2ccco2)c2ccccc12`, for which the “growth rescue (activation)” value is inactive: -19.2%.

Turning to `CC(C)NC(=O)COC(=O)c1cncc(Br)c1`, the “growth rescue (activation)” value is inactive: -5.46%.

Consider `CNC(=O)c1cccc(NC(=O)c2ccccc2OCc2ccccc2)c1`, for which the “growth rescue (activation)” value is inactive: 23.2%.

As for `CCC(C)C1=CC(=Nc2c(C)n(C)n(-c3ccccc3)c2=O)C=C(C(C)CC)C1=O` (stereo unspecified), the “growth rescue (activation)” value was inactive: 1.22%.

Consider `CC1CCN(C2=C(NS(=O)(=O)c3ccccc3)C(=O)c3ccccc3C2=O)CC1`, for which the “growth rescue (activation)” value was inactive: 6.75%.

With `CN(c1ccc(OCC(=O)OCC(=O)Nc2cccc([N+](=O)[O-])c2)cc1)S(=O)(=O)c1ccc(F)cc1`, the “growth rescue (activation)” value is inactive: 9.11%.

In the case of `COCCNC(=O)C(c1ccc(O)cc1)N(C(=O)CCC(=O)Nc1nccs1)c1ccc(C)cc1` (stereo unspecified), the “growth rescue (activation)” value was inactive: 7.51%.

As for `COc1ccc(C(CNC(=O)c2ccc(S(=O)(=O)N(C)C)cc2)N(C)C)cc1` (stereo unspecified), the “growth rescue (activation)” value was inactive: -1.57%.

Take `Cn1c(=O)c(=O)n(C)c2cc(S(=O)(=O)NCCOc3ccccc3)ccc21`: the “growth rescue (activation)” value is inactive: -29.3%.

Take `NC(=O)COC(=O)[C@@H]1CC(O)CN1S(=O)(=O)c1ccc2c(c1)OCCO2` (stereo partly specified): the “growth rescue (activation)” value was inactive: 4.39%.

For `O=C(N/N=C/c1ccco1)C(O)C(O)C(=O)N/N=C/c1ccco1` (stereo unspecified), the “growth rescue (activation)” value was inactive: -20.8%.

With `COc1ccccc1NC(=O)CSc1sc2c(O)cc(=O)[nH]c2c1C#N`, the “growth rescue (activation)” value was inactive: -6.22%.

On to `COCC(C)n1c(SCC(=O)NC(=O)NCc2ccccc2)nc2ccccc2c1=O` (stereo unspecified), for which the “growth rescue (activation)” value is inactive: 8.01%.

For the compound `Cc1cc2c(cc(C(=O)OC(C)C(=O)NCc3ccc(F)cc3)n2C)o1` (stereo unspecified), the “growth rescue (activation)” value was inactive: 6.08%.

`Cc1ccc(CC(=O)NC2CCCc3ccccc32)cc1C` (stereo unspecified): the “growth rescue (activation)” value is inactive: 32.4%.

For `O=C(O)c1ccc(NC2=C/C(=N/S(=O)(=O)c3ccccc3)c3ccccc3C2=O)cc1`, the “growth rescue (activation)” value was inactive: -64.6%.

Turning to `O=C(COC(=O)c1ncc(Cl)c(Cl)c1Cl)NC(=O)NCc1ccccc1`, the “growth rescue (activation)” value was inactive: 13.3%.

Regarding `CNc1ccc(-c2cccc(C(C)=O)c2)cn1`, the “growth rescue (activation)” value was inactive: 4.34%.

In the case of `COc1ccc(OCCNC(=O)C2(C)CCN2Cc2ccc3ccccc3c2)cc1` (stereo unspecified), the “growth rescue (activation)” value was inactive: -1.42%.

Turning to `COc1ccc(F)cc1-c1cc(C(=O)NC2CCCCC2)[nH]n1`, the “growth rescue (activation)” value was inactive: 20.7%.

As to `O=S(=O)(c1cccc(-c2n[nH]c(=S)n2-c2ccccc2Cl)c1)N1CCOCC1`, the “growth rescue (activation)” value is inactive: -7.76%.

Take `OCCC1CN(Cc2ccc(-n3cccn3)cc2)CCN1Cc1ccccc1` (stereo unspecified): the “growth rescue (activation)” value is inactive: 9.56%.

In the case of `CCOC(=O)c1c(CN(CC)CC)n(C)c2cc(Br)c(O)cc12`, the “growth rescue (activation)” value is inactive: 11.1%.

For `O=C(N/N=C/c1ccccc1)c1ccc(CN2C(=O)c3cccc4cccc2c34)cc1`, the “growth rescue (activation)” value is inactive: 30%.

As to `Cc1c(C(=O)NCc2ccccc2Br)oc2ccc3c(c12)C(=O)CC(C)(C)O3`, the “growth rescue (activation)” value was inactive: 5.15%.

Consider `O=C(OCc1nc2ccccc2s1)c1ccc(Br)o1`, for which the “growth rescue (activation)” value is inactive: -1.75%.

In the case of `CS(=O)(=O)N1c2cccc3cccc(c23)S1(=O)=O`, the “growth rescue (activation)” value is inactive: 9.64%.

Consider `CSCCC(NS(=O)(=O)c1ccc(C)cc1C)C(=O)Nc1cccnc1` (stereo unspecified), for which the “growth rescue (activation)” value was inactive: 2.83%.

For the compound `CC(=O)NC(CC(=O)NC1CCCCC1)c1ccccc1` (stereo unspecified), the “growth rescue (activation)” value was inactive: 5.69%.

Regarding `COc1ccccc1N1CCN(C(=O)c2cc(S(=O)(=O)N3CCCCC3)ccc2C)CC1`, the “growth rescue (activation)” value was inactive: 13.5%.

On to `CCOc1cc(N2CCOCC2)c(OCC)cc1NC(=O)COC(=O)c1ccccc1OC(F)F`, for which the “growth rescue (activation)” value was inactive: 14.8%.

`CC1(C)C(=O)Nc2ccccc2N1C(=O)COC(=O)Cc1ccccc1F`: the “growth rescue (activation)” value is inactive: 21.9%.

Regarding `CCCCc1nc2cc(C(=O)NCCc3cnn(C)c3)ccc2o1`, the “growth rescue (activation)” value is inactive: 5%.

In the case of `CCSc1nnc(NC(=O)c2cc(C)nc3ccccc23)s1`, the “growth rescue (activation)” value is inactive: 2.75%.

For `Cc1cccn2c(=O)c(C=C(C#N)C#N)c(N3CCN(C)CC3)nc12`, the “growth rescue (activation)” value was inactive: -2.92%.

For the compound `COc1ccc(-c2cc(C(=O)Oc3cccc(C)c3C)c3ccccc3n2)cc1`, the “growth rescue (activation)” value was inactive: -0.424%.
